Results as given in PubChem BioAssay AID1345083 (National Center for Advancing Translational Sciences (NCATS), 2018).
Out of some 94,000 compounds screened, about 6,200 (6.6%) were called active. The inconclusive results got no clear call from the source; some entries with a clear call stand among them for comparison. Calls come from the whole dose curve; as a rule, active = well fitted inhibition curve with a large enough effect; inconclusive = small, poorly fitted or top-dose-only effect; inactive = flat fitted curve, though single readings scatter. A potency beside an inconclusive call is a rough fit, not a confirmed value.

Assay: Cytotoxic Profiling in HEK 293 Cell Line of Diverse Libraries Using Quantitative High-Throughput Screening; note: nearly all actives have a fitted effect of over 60% in size
Conditions: HEK 293 viability, ATP luminescence (CellTiter-Glo), 48-72 h; activity change, negative = cytotoxicity: at 115 µM (top of the series) unless noted; series mostly up to 115 µM
Summary of the method: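 Luminescence from cellular ATP, measured with CellTiter-Glo, indicates HEK 293 viability. Cells plated at 250 cells/well are treated with compound for 48 or 72 hr at 37 degree Celsius before reagent addition.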
% is set by controls: 0 for no effect and ±100 for the full control effect; potency is the fitted concentration of half-maximal effect; tags give direction and shape of the fitted curve.

Structure (SMILES)	Potency	activity change, negative = cytotoxicity	outcome
O=C(CC1CCCCN(Cc2ccccc2)C1=O)Nc1ccccc1 (centres undefined)	inconclusive: 79.4 µM [inhibitor, partial curve]	–	–
COc1cc(F)ccc1-c1ccnc2nc(CCc3ccccc3)nn12	inconclusive: 44.7 µM [inhibitor, partial curve, poor fit]	–	–
COc1cccc(N2C(=O)NC(=NC3CCCCC3)C23CCN(Cc2ccsc2)C3)c1 (centres undefined)	–	inactive: -14.4%	–
CCN1CCN(C(=O)c2ccc(-c3nnc4ccc(NC(=O)C5CCC5)cn34)cc2)CC1	inconclusive: 89.1 µM [inhibitor, single point]	–	–
c1cc(CN2CCOCC2)cc(-c2cnn3ccccc23)c1	inconclusive: 10 µM [inhibitor, full curve, poor fit]	–	–
CN(Cc1cccc(C(F)(F)F)c1)C(=O)Cc1ccc(F)cc1	inconclusive: 112 µM [inhibitor, partial curve]	–	–
CCN(CC)Cc1cc(-c2nc(C3CCOC3)no2)c(-c2ccccc2)o1 (centres undefined)	–	inactive: -28.5%	–
COc1ccc(S(=O)(=O)NC[C@@H]2C=C(C)[C@H](CC(=O)N3CCN(C)CC3)C[C@H]2C(C)C)cc1	inconclusive: 50.1 µM [inhibitor, partial curve, poor fit]	–	–
COc1ccc(C(=O)N2C[C@@H](CO)[C@H](c3ccncc3)C2)c(C)c1	–	inactive: -14.8%	–
O=C(NC[C@H]1O[C@@H](CO)[C@@H](O)[C@H]1N1CCN(c2ccccc2)CC1)c1ccccc1Cl	–	inactive: -0.559%	–
CC1=C[C@@H](CN2CCC(O)CC2)[C@H](C(C)C)C[C@H]1Cc1nnc(-c2ccc([N+](=O)[O-])cc2)o1	inconclusive: 50.1 µM [inhibitor, partial curve, poor fit]	–	–
CC(C)C[C@@H]1N[C@H](C(=O)NC2CCC2)Cc2cn(Cc3ccncc3)c3cccc1c23	inconclusive: 63.1 µM [inhibitor, partial curve, poor fit]	–	–
CCOC(=O)[C@@H]1CN(C(=O)NCc2ccccc2)[C@H]2c3ccccc3O[C@@H]12	–	inactive: -24%	–
CNC(=O)C(C)(C)N1CCC[C@H]1C(=O)N(C)Cc1ccccc1	–	inactive: -29.2% [at 172 µM]	–
CC(C)C(=O)NCCC1CCN(C(=O)Nc2cc(F)ccc2F)CC1	–	inactive: 4.11%	–
O=C(NCc1cccs1)c1cn2cc(-c3ccc(F)cc3)sc2n1	inconclusive: 79.4 µM [inhibitor, partial curve, poor fit]	–	–
COc1cccc(-c2cc(C(=O)NCc3ccccn3)c3cnn(C)c3n2)c1	active: 79.4 µM	–	–
O=C(NCc1cccc(F)c1)C1CCc2sc(C(=O)N3CCCCC3)cc2C1 (centres undefined)	inconclusive: 56.2 µM [inhibitor, partial curve, poor fit]	–	–
O=C(CCc1cc(Cl)no1)N1CCCC(c2nc(C3CCOCC3)no2)C1 (centres undefined)	inconclusive: 50.1 µM [inhibitor, partial curve, poor fit]	–	–
COc1cccc(CNC(=O)C2CCN(C(=O)c3ncn4c3COC(c3ccc(F)cc3)C4)CC2)c1 (centres undefined)	–	inactive: -9.66%	–
CN1C[C@@H](NC(=O)Nc2cccc(C#N)c2)C[C@H]1c1nc(-c2ccc(Cl)cc2)no1	inconclusive: 17.8 µM [inhibitor, full curve, poor fit]	–	–
Cc1nnc2ccc(N3CCN(C(=O)c4ccc(Cl)cc4)CC3)nn12	inconclusive: 50.1 µM [inhibitor, partial curve, poor fit]	–	–

Structure (SMILES)	Potency	activity change, negative = cytotoxicity	outcome
Fc1cccc(NC2CCCN(Cc3cccn3-c3nccs3)C2)c1 (centres undefined)	active: 44.7 µM	–	–
COCCn1c(C)cnc1CC1CCN(C(=O)CCC2CCCC2)CC1	inconclusive: 79.4 µM [inhibitor, single point]	–	–
C=CCN1C[C@H]2COc3cc(OC)ccc3[C@H]2N(C(=O)c2ccc(F)cc2)CCC1=O	–	inactive: -3.77%	–
O=C(O)CCc1nc(C2CCOCC2)n[nH]1	–	inactive: -10.2%	–
Cn1c(CNC(=O)C2(Cc3ccccc3)CCCCC(=O)N2)nc2ccccc21 (centres undefined)	inconclusive: 89.1 µM [inhibitor, single point]	–	–
Cc1cccc(O[C@H]2COCCN(c3nc4ccccc4s3)C2)n1	active: 100 µM	–	–
COCCNC(=O)C1COC2(CCN(C(=O)c3ccccc3C)CC2)N1C(=O)c1cccc(OC)c1 (centres undefined)	–	–	inactive
Cc1ccccc1-c1noc(CNCc2nc3ccc(Cl)cc3[nH]2)n1	active: 79.4 µM	–	–
CN1CCN(C(=O)[C@@H]2CCC[C@@H](NC(=O)NC3CCCC3)CN(C)C(=O)C2)CC1	–	–	inactive [at 172 µM]
O=C(c1ccccc1Cl)N1CCN(c2cc(-c3ccccc3)[nH]n2)CC1	active: 20 µM	–	–
O=C(NC[C@H]1OC[C@@H](NCc2ccc(F)cc2)[C@@H]1O)c1ccncc1	–	–	inactive [at 172 µM]
COc1ccccc1/C=C/CN1CCNC(=O)C1CC(=O)N(C)Cc1ccc(C)cc1 (centres undefined)	–	inactive: -5.71%	–
CC(C)Cc1cc(C[C@@H]2C[C@H](NC(=O)C3CCCC3)C2(C)C)no1	inconclusive: 50.1 µM [inhibitor, partial curve, poor fit]	–	–
Cc1ccc(CN2CCC(C(=O)N3CCCCCCNC(=O)CC3)CC2)o1	–	–	inactive
COc1ccc(CC(=O)N2CCCC(N3C(=O)c4c(c(C)nn4-c4ccccc4)C3C(C)C)C2)cc1 (centres undefined)	inconclusive: 50.1 µM [inhibitor, partial curve, poor fit]	–	–
COCCN1CCC(C(=O)Nc2ccc(Oc3ccccc3F)cc2)CC1	active: 50.1 µM	–	–
COc1ccc(-c2cccc(C(=O)N3CCC(NC(=O)c4cccc(Cl)c4)CC3)c2)nn1	inconclusive: 79.4 µM [inhibitor, partial curve]	–	–
COc1ccc(-n2cc(CN3CCC(O)CC3)c(-c3cccc(F)c3)n2)cc1	inconclusive: 89.1 µM [inhibitor, single point]	–	–
COc1ccc(CN2CCNc3cnc(Nc4ccccc4)cc3C2)cn1	inconclusive: 89.1 µM [inhibitor, partial curve]	–	–
CCCCCNC(=O)C1CCCN(c2nccc(Nc3ccccc3OC)n2)C1 (centres undefined)	active: 39.8 µM	–	–
COc1ccc(NC(=O)CCC2CCCN(S(=O)(=O)c3ccccc3)C2)cc1F (centres undefined)	inconclusive: 44.7 µM [inhibitor, partial curve, poor fit]	–	–
O=C(NCc1ccc2c(c1)OCO2)c1nc(-c2cccc(C(F)(F)F)c2)c2ccccn12	inconclusive: 22.4 µM [inhibitor, full curve, poor fit]	–	–
